Read counts are not given, so values of variants with three or more changes are uncertain.
B1: LINE1-mini (parent)
chain: GGCAGAGCUCAACACAGCGUGGCAAAGUGGCUGUGGCUAGACUGCC

Variants of: B1
Test: self-cleavage, relative activity (ratio to wild type); higher = more cleavage; in vitro, sequencing; the parent is a self-cleaving ribozyme

Variant | self-cleavage
GGCCGAGCUAAACACAGCGUGGCAAAGUGGCUCUGGCUAGACUUCC [A4C C10A G33C G44U] | 0.02
GGCCGAGUUCAGCACAGAGUGGCAAAGUGGCUGUGGCUAGACUGCC [A4C C8U A12G C18A] | 1.05
GGCCGAGCUCAACUCAGCGUGGCAAAGUGGCUGUGGCUAUACUGCC [A4C A14U G40U] | 0.03
GGCCGAGCUCAACACAGCGUGGCUAAGUCGAUGUGGCUAGACUGCC [A4C A24U G29C C31A] | 0.08
GGCCGAGCUCAACACUGCGGGGCAAAGUAGCUGUGGCUAGACUGCC [A4C A16U U20G G29A] | 0.05
GGCCGAGCUCAACACAGCGUGGCAUAGUGGCUGUGGGUAGACUGCC [A4C A25U C37G] | 0.09
GGCCGAGCUAAACACAGCUUGGUAAAGUGGCUGUGGCUAAACUGCC [A4C C10A G19U C23U G40A] | 0
GGCCGAGCUAAACACAGUGUGGCAAAGUGGCUAUGGCUUGACUGCC [A4C C10A C18U G33A A39U] | 0
GGCCGAGAUCAACACAGCGUGGCAAAGUGGCUGUUGCUAGACUGCC [A4C C8A G35U] | 0.22
GGCCGAGCUCAACCCAGCGUGGCAAAGUGGCUGUAGCGAGAAUGCC [A4C A14C G35A U38G C42A] | 0.03
GGCCGAGCUCAUCAAAGCGUGGCAAAGGGGCUGUGGCUAGACUGCC [A4C A12U C15A U28G] | 0.02
GGCCGAGAUCAACAAAGCGUGGCAAAGUGGCUGUGGCUAGACUGCC [A4C C8A C15A] | 0.26
GGCCGAGAUCAAGACAGAGUGGGGAAGUGGCUGUGGCUAGACUGUC [A4C C8A C13G C18A C23G A24G C45U] | 0.19
GGCCGAGCUAAACACAGCGUGGCUAAGUGGCUGUGGCUAGACUGCC [A4C C10A A24U] | 0.05
GGCCGAGCUCAACACUGUGUGACUAAGUAGCUGUGGCUAGACUGCC [A4C A16U C18U G22A A24U G29A] | 0.02
GGCCGAGCUAAACACAGAGUGGCAAAGUGGCUGUGGCUAGACUGCC [A4C C10A C18A] | 0.04
GGCCGAGAUCAACACAGCGUGGCAAAGUGGCUGUGGCGAGACUGCC [A4C C8A U38G] | 0.11
GGCCGAGCUCGACACAGCGUGGCAAUGUGGCUGUCGCUAGACUGCC [A4C A11G A26U G35C] | 0.02
GGCCGAGCUCAACGCAGCGUGGCAAAGUGGCUGCGGCUAGCCUGCC [A4C A14G U34C A41C] | 0.02

Variant | self-cleavage
GGCCGAGCUCAACCCAGCGAGGCAAAGUGGCUGUGGCUAGACGGCU [A4C A14C U20A U43G C46U] | 0.55
GGCCGAGCUCAACACUGCGUCGCACAGUGGCUGUGCCUAGACAGCC [A4C A16U G21C A25C G36C U43A] | 0.04
GGCCGAGCUCAACACAGCGUGGCCAGGUGGCUCUGGCUAUACUGCC [A4C A24C A26G G33C G40U] | 0.03
GGCCGAGCUCAACACAGCGUGGCAGAGUCGCCGUCGCUAGACUGCC [A4C A25G G29C U32C G35C] | 1.29
GGCCGAGCUCAACACAGCGUGGCACAGUUGUUGUGGCUAGACUGCC [A4C A25C G29U C31U] | 0.03
GGCCGAGCUCGCCACAGCAUGGAGAAGUGCCUGCGGCUAGACUGCC [A4C A11G A12C G19A C23A A24G G30C U34C] | 0.01
GGCCGAGGUCAACACAGCGUGGCAACGUGGCUGUGGCUAGACUGCC [A4C C8G A26C] | 0.28
GGCCGAGCUCAACACAGCGUGGCACAGUGUCUGUGGCUAGAUAGCC [A4C A25C G30U C42U U43A] | 0.67
GGCCGAGCUAAACACAGCGUGGCAAACUGGCUGUGGCUAGACUGCC [A4C C10A G27C] | 0
GGCCGAGCUCAACACCGCUUGGCAAAGUGGAUGUGGCUAGACCGCC [A4C A16C G19U C31A U43C] | 0.01
GGCCGAGCUCUACACAGCGUGGCACAGUGGCUGUGGGUAGACUGCC [A4C A11U A25C C37G] | 0.01
GGCCGAGCUAAACACAACGUGGCAAAGUGGCUGUGGUUAGACUGAC [A4C C10A G17A C37U C45A] | 0.01
GGCCGAGCUCAACUCAGCGUGGCAAAGUGGAUGUGGCUAGACUCCC [A4C A14U C31A G44C] | 0.03
GGCCGAGCUCAACUCAGCGUGGCCAAGUGGCUGUGGCUAGACUGCC [A4C A14U A24C] | 0.12
GGCCGAGCUCAACACAGCGUGGCGAAGUGGCUGUGGCUUGACUGCC [A4C A24G A39U] | 0.02
GGCCGAGCUCAACACAGCGUGGCUAAGUGGAUCUGGCUAGACUGCG [A4C A24U C31A G33C C46G] | 0.02
GGCCGAGCUCAACACAGCGUGGCGAAGUGGCUGUGGGUAGACUGCC [A4C A24G C37G] | 0.38
GGCCGAGCUAAACUUAUCGUGGCAAAGUGGCUGGGGGUAGACUGCC [A4C C10A A14U C15U G17U U34G C37G] | 0.02
GGCCGAGCUCUACACAGCGUGGCAAAGUGGCUGUGGCUAGACCGCC [A4C A11U U43C] | 0

Variant | self-cleavage
GGCCGAGCUCCACACAGCGUGGCAAAGUGCCUGUGGCUAGACUGCC [A4C A11C G30C] | 0.04
GGCCGAGAUCAACACAGCGUGGCAAAGUGGCUGUGGCUAGACUGAC [A4C C8A C45A] | 0.42
GGCCGAGCUCAACACUGCGUGGCAAAGUCGCUGUGGCUAGACUGCC [A4C A16U G29C] | 0.28
GGCCGAGGUCAACACAGCGUGGCAAAGUGGUUGUGGCUGGACUGCC [A4C C8G C31U A39G] | 0.11
GGCCGAGCUCAACACAGCGUGGCAGAGUGGCUGUGGCUAGACUGCA [A4C A25G C46A] | 0.21
GGCCGAGCUAAAUACAGCGUGGCAAAGUGGCUGUGGCUAGACUGCC [A4C C10A C13U] | 0.01
GGCCGAGGUCAACACAGCGUGGCAAAGUGGCAGUGUCUAGACUGCC [A4C C8G U32A G36U] | 0.04
GGCCGAGCUAAACACAGCGUGGCAAAGUGGCUGUCGCAAGACUGCC [A4C C10A G35C U38A] | 0
GGCCGAGCUCAGCACAGCGUGGCAAAGUGGCUGUGACUAGACUGCC [A4C A12G G36A] | 0.1
GGCCGAGCUCAACGCAGCGUGGCAAAGAGGCUGUGGCUAGACUACC [A4C A14G U28A G44A] | 0.03
GGCCGAGCUCGACACAGCGUAUCAAAGUGGCUGUGGCUAGACUGCC [A4C A11G G21A G22U] | 0.13
GGCCGAGAUCAACACAGCGUGGCAAAGUGGCUGUGGCUAGACUCCC [A4C C8A G44C] | 0.21
GGCCGAGCUCGAUAUAGCGUGGCAAAGUGGCUGUGGCUAGACUGCC [A4C A11G C13U C15U] | 0.04
GGCCGAGGUCAACACAGCGUAGCAAAGUGGCGGUGGCUAGACUGCC [A4C C8G G21A U32G] | 0.04
GGCCGAGAUCAACACAGCGUGGCAAAGUCGCUGUGGCUAGAAUGCC [A4C C8A G29C C42A] | 0.3
GGCCGAGUUCAACACAGGGUCGCAAAGUGGCUGCGGCUAGACUGCC [A4C C8U C18G G21C U34C] | 0.07
GGCCGAGCUCAACUCAGCGUGGCAAAGUGGCUGUGGCCAGACUGCC [A4C A14U U38C] | 0
GGCCGAGCUCGACACAGCGUGGCAAAGGGGCUGUGGCUAGACUGCC [A4C A11G U28G] | 0.03

Reference: the RNAGym collection of RNA variant scans (doi:10.7554/elife.90254)
